Hit rate of the full screen: of about 310,000 compounds, about 2,200 (0.71%) showed an effect of 50% or more. Effects have a minus sign here. Some of the results follow.
These molecules were tested against human ether-à-go-go-related gene (hERG) potassium channel (human, UniProt Q12809) (assay: primary screen, population patch clamp on CHO cells stably expressing hERG).
Sequence of human ether-à-go-go-related gene (hERG) potassium channel (Q12809 whole entry, looked up): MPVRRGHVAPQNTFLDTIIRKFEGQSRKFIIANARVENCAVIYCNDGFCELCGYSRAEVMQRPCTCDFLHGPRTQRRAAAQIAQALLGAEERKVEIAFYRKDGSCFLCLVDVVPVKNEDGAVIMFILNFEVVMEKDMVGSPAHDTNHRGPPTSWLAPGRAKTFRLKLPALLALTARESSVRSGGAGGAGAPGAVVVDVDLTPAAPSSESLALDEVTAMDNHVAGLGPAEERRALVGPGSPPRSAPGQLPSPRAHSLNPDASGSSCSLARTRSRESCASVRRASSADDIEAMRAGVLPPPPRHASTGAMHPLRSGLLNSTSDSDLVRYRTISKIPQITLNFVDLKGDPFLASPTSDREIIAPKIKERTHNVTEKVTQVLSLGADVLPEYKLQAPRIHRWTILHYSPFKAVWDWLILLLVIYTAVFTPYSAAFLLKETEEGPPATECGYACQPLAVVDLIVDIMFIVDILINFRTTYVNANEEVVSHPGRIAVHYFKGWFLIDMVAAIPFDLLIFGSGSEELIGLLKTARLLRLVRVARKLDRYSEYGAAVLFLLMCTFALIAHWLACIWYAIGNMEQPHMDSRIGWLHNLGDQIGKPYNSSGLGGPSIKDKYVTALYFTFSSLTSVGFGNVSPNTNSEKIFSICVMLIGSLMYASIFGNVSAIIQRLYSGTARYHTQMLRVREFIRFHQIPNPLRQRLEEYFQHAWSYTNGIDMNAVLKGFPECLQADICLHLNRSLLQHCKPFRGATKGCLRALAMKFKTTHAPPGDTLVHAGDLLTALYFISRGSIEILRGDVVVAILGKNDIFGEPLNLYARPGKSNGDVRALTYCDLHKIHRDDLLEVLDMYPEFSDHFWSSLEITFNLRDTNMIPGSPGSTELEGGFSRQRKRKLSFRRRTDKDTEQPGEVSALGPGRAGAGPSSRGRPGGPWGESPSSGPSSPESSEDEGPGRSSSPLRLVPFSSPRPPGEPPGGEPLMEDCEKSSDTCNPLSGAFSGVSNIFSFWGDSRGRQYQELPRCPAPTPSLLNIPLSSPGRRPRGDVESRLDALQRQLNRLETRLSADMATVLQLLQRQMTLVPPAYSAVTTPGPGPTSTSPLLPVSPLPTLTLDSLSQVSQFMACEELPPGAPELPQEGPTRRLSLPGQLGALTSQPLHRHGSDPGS
With COc1ccc(-n2nc3c(c2NC(=O)COc2ccccc2)CS(=O)(=O)C3)cc1 the “hERG current change (%, negative = inhibition) at 1uM” value was 12.6%.
CC1(C)CC(=O)C(C=NCCN2CCN(C(=O)c3ccccc3)CC2)=C(O)C1 was tested, and the “hERG current change (%, negative = inhibition) at 1uM” value was 17.3%.
In the case of COCCCNC(=O)Cn1nc(-c2ccccc2OC)ccc1=O, the “hERG current change (%, negative = inhibition) at 1uM” value is reported as 11.5%.
Cc1cc(Cn2nnc3ccccc32)c(O)c(C(C)(C)C)c1 was tested, and the “hERG current change (%, negative = inhibition) at 1uM” value was 23.6%.
In the case of C#CCOCCOCCOCCNc1nc(N2CCN(C(=O)Cn3cc(CC(C)O)nn3)CC2)nc(N2CCN(C(=O)[C@H](CCCC[NH3+])n3cc(CCC(=O)O)nn3)CC2)n1.[Cl-] (some centres unmarked), the “hERG current change (%, negative = inhibition) at 1uM” value is reported as 10.6%.
For O=S(=O)(c1ccc(Cl)cc1)N1CCCN(c2ccc(C(F)(F)F)cn2)CC1, the “hERG current change (%, negative = inhibition) at 1uM” value was 4.45%.
For CCOc1ccc2[nH]c(=O)c(CN(Cc3ccccc3)C(=O)N3CCCC3)cc2c1, the “hERG current change (%, negative = inhibition) at 1uM” value was 18.9%.
In the case of CN(C)c1ccc(C(=O)Nc2ccc(CN3CCS(=O)(=O)CC3)cc2)cc1, the “hERG current change (%, negative = inhibition) at 1uM” value is reported as 12%.
COCCCN(C(=O)c1ccccc1)c1nc(-c2ccc(OC)cc2)cs1 was tested, and the “hERG current change (%, negative = inhibition) at 1uM” value was 14.5%.
With O=C(Cn1nc(Cl)nc1Cl)c1ccc([N+](=O)[O-])cc1 the “hERG current change (%, negative = inhibition) at 1uM” value was 10.2%.
For O=C(Nc1nc2ccccc2[nH]1)c1ccccc1F, the “hERG current change (%, negative = inhibition) at 1uM” value was -5.91%.
Oc1c(N=NC(=S)Nc2ccccc2F)c2ccccc2n1Cc1cccc(Cl)c1 was tested, and the “hERG current change (%, negative = inhibition) at 1uM” value was 10.6%.
With CS(=O)(=O)N1CCN=C1SCc1ccccc1 the “hERG current change (%, negative = inhibition) at 1uM” value was 14.4%.
In the case of Cc1cc(C(=O)COC(=O)CNC(=O)c2ccc(Cl)c(Cl)c2)c(C)n1Cc1ccco1, the “hERG current change (%, negative = inhibition) at 1uM” value is reported as 16.4%.
For CC(=O)Cn1ncc(N2CCOCC2)cc1=O, the “hERG current change (%, negative = inhibition) at 1uM” value was 9.01%.
For Cc1ccc(NC(=S)NNC(=O)CSc2nnc(-c3ccc(Cl)cc3)n2C2CCCCC2)cc1, the “hERG current change (%, negative = inhibition) at 1uM” value was 10.3%.
In the case of CN(CCOc1ccccc1)CC(=O)Nc1cccc(C#N)c1, the “hERG current change (%, negative = inhibition) at 1uM” value is reported as 10%.
CCC(=O)NC(=S)Nc1ccc(-c2nc3ccc(C)cc3s2)cc1 was tested, and the “hERG current change (%, negative = inhibition) at 1uM” value was 1.81%.
COc1cccc(C(=O)NCCS(=O)(=O)NCc2cccs2)c1 was tested, and the “hERG current change (%, negative = inhibition) at 1uM” value was 7.77%.
COC(=O)c1[nH]c2cc(OC)ccc2c1NC(=O)c1nonc1C was tested, and the “hERG current change (%, negative = inhibition) at 1uM” value was 11.7%.
For COc1ccc(-c2cc(C(=O)N3CCN(c4ccccn4)CC3)c3ccccc3n2)cc1, the “hERG current change (%, negative = inhibition) at 1uM” value was -3.67%.
CC(=O)Oc1ccc(-c2cccc(C(=O)NCC(=O)O)c2)cc1 was tested, and the “hERG current change (%, negative = inhibition) at 1uM” value was 16.4%.
With COC(=O)C1=C(c2cccc(C#N)c2)C[C@@H]2CC[C@H]1N2C(=O)NCCCOC(C)C the “hERG current change (%, negative = inhibition) at 1uM” value was 9.53%.
With Cc1ccc(NC(=O)NCCCCc2ccccc2)cc1 the “hERG current change (%, negative = inhibition) at 1uM” value was 14.4%.
With CCOC(=O)CNC(=O)COc1ccc(Cl)cc1Br the “hERG current change (%, negative = inhibition) at 1uM” value was 3.34%.
For O=C(CN(Cc1ccc(Cl)cc1)C(=O)CNS(=O)(=O)c1ccccc1)NCC1CCCO1 (centres unmarked), the “hERG current change (%, negative = inhibition) at 1uM” value was 18.5%.
For O=C(O)COc1ccc(/C=N/NC(=O)C2CCCN2S(=O)(=O)c2ccc(Cl)cc2)cc1 (centres unmarked), the “hERG current change (%, negative = inhibition) at 1uM” value was 17.1%.
For Cc1cnc(NC(=O)CSc2nnc(COc3c(C)cccc3C)o2)s1, the “hERG current change (%, negative = inhibition) at 1uM” value was 11.6%.
Cc1ccc(OCCCCn2cnc3ccccc32)cc1.Cl was tested, and the “hERG current change (%, negative = inhibition) at 1uM” value was 5.42%.
In the case of COc1ccc(NC(=O)/C(C#N)=C\c2ccc(Br)o2)cc1, the “hERG current change (%, negative = inhibition) at 1uM” value is reported as 5.71%.
In the case of CC(=O)Oc1ccc2c(=O)c(-c3ccccc3)c(C)oc2c1, the “hERG current change (%, negative = inhibition) at 1uM” value is reported as 18.2%.
In the case of N#CCC(=O)Nc1ccccc1C(=O)O, the “hERG current change (%, negative = inhibition) at 1uM” value is reported as 4.05%.
CCOC(=O)c1sc(NC(=O)C2CC=CCC2C(=O)O)nc1C (centres unmarked) was tested, and the “hERG current change (%, negative = inhibition) at 1uM” value was 13.7%.
For CSc1nccc(N2CCN(c3ccc(F)cc3)CC2)n1, the “hERG current change (%, negative = inhibition) at 1uM” value was 2.01%.
With CCOc1ccccc1C(=O)N1CCC(C(=O)c2ccc(F)cc2)CC1 the “hERG current change (%, negative = inhibition) at 1uM” value was 2.3%.
In the case of COc1ccc(NC(=O)c2ccco2)cc1S(=O)(=O)N1CCOCC1, the “hERG current change (%, negative = inhibition) at 1uM” value is reported as 9.71%.
For CCC(=O)Nc1nnc(Sc2ccc(N(C)C)cc2)s1, the “hERG current change (%, negative = inhibition) at 1uM” value was 9.84%.
In the case of O=C(CN1CCC(NC(=O)c2cccc(F)c2)CC1)NCc1ccccc1F, the “hERG current change (%, negative = inhibition) at 1uM” value is reported as -3.17%.
With O=C(COc1ncnc2ccccc12)N1CCN(c2ccccc2)CC1 the “hERG current change (%, negative = inhibition) at 1uM” value was -0.0215%.
For COc1ccc(CCNC(=O)c2cc3cccc(OC)c3oc2=O)cc1OC, the “hERG current change (%, negative = inhibition) at 1uM” value was 23.2%.
O=C(NC1CCCC1)C1CC(=O)N(c2ccc(F)c(Cl)c2)C1 (centres unmarked) was tested, and the “hERG current change (%, negative = inhibition) at 1uM” value was 7.43%.
In the case of O=C(NCCCN1CCOCC1)c1cc(-c2ccccc2F)no1, the “hERG current change (%, negative = inhibition) at 1uM” value is reported as 19.7%.
For O=C(COC(=O)CNC(=O)c1ccc(Br)o1)Nc1ccccc1OC(F)F, the “hERG current change (%, negative = inhibition) at 1uM” value was -16%.
For COC(=O)C[C@H]1c2cc(F)ccc2S(=O)(=O)N1Cc1ccccc1, the “hERG current change (%, negative = inhibition) at 1uM” value was 2.98%.
For CCCCNC(=O)[C@@H]1CSC2c3ccccc3C(=O)N21 (some centres unmarked), the “hERG current change (%, negative = inhibition) at 1uM” value was 6.55%.
For CC(=O)c1ccc(S(=O)(=O)N2CCN(C(=O)c3ccccc3Cc3ccccc3)CC2)cc1, the “hERG current change (%, negative = inhibition) at 1uM” value was 3.46%.
With O=C(CCCN1C(=O)S/C(=C\C=C\c2ccccc2)C1=O)Nc1ccc(C(=O)O)cc1 the “hERG current change (%, negative = inhibition) at 1uM” value was 16.2%.
For Cc1ccc2cc3c(NS(=O)(=O)c4cccc5nonc45)nn(CC(C)C)c3nc2c1, the “hERG current change (%, negative = inhibition) at 1uM” value was 4.86%.
CC(=O)Nc1ccc(C(=O)Nc2ccncc2)cc1 was tested, and the “hERG current change (%, negative = inhibition) at 1uM” value was 12%.
In the case of CCOC(=O)c1c(C)[nH]c(C(=O)OCC(=O)N(CC(C)C)C2CCS(=O)(=O)C2)c1C (centres unmarked), the “hERG current change (%, negative = inhibition) at 1uM” value is reported as 9.09%.
For COc1cc2c(cc1OC)-c1c(OC)c(OC)cc3c1C(C2)N(C)CC3 (centres unmarked), the “hERG current change (%, negative = inhibition) at 1uM” value was 5.94%.
In the case of Cc1cccc(-c2noc(-c3ccno3)n2)c1, the “hERG current change (%, negative = inhibition) at 1uM” value is reported as 10.4%.
In the case of CCOC(=O)C1(Cc2ccccc2)CCN(Cc2cnn(C(C)C)c2)CC1, the “hERG current change (%, negative = inhibition) at 1uM” value is reported as -2.04%.
For COc1ccc(OC)c(N(CC(=O)N2CCCC2)S(C)(=O)=O)c1, the “hERG current change (%, negative = inhibition) at 1uM” value was 9.98%.
With COc1ccccc1NC(=O)CNc1ccc(F)c(Cl)c1 the “hERG current change (%, negative = inhibition) at 1uM” value was 1.44%.
In the case of CN(C)CCCn1c(=S)[nH]c2sc3c(c2c1=O)CCCC3, the “hERG current change (%, negative = inhibition) at 1uM” value is reported as 6.5%.

From article PMC4336329 (PLoS ONE, 2015)
